# According to the supplement of paper PMC8728848:
# This is one part of the list.
# What was measured:
# Assay in all cases: glycan array binding signal (z-score within array); higher = stronger binding
# Details in all cases: glycan notation: IUPAC condensed, linker removed
# [1] = biological target: Gal(a1-3)[Gal(a1-4)]Gal(b1-4)GlcNAc
# Summary of the method: (§1)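 Columns mapping to the same glycan were averaged after glycan names were converted to IUPAC-condensed notation. The data come from 3228 arrays in the Consortium for Functional Glycomics database, limited to those with an available protein sequence. Binding is reported as a within-array Z-score averaged across arrays of one protein sequence and across linkers.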
# [2] = biological target: Gal(a1-4)Gal(b1-3)GlcNAc(b1-2)Man(a1-3)[Gal(a1-4)Gal(b1-3)GlcNAc(b1-2)Man(a1-6)]Man(b1-4)GlcNAc(b1-4)GlcNAc
# Summary of the method: as §1
# Gal(a1-4)Gal(b1-4)Glc = biological target: Gal(a1-4)Gal(b1-4)Glc
# Summary of the method: as §1
# Gal(a1-4)Gal(b1-4)GlcNAc = biological target: Gal(a1-4)Gal(b1-4)GlcNAc
# Summary of the method: as §1
# [3] = biological target: Gal(a1-4)Gal(b1-4)GlcNAc(b1-2)Man(a1-3)[Gal(a1-4)Gal(b1-4)GlcNAc(b1-2)Man(a1-6)]Man(b1-4)GlcNAc(b1-4)GlcNAc
# Summary of the method: as §1
# [4] = biological target: Gal(a1-4)Gal(b1-4)GlcNAc(b1-3)Gal(b1-4)Glc
# Summary of the method: as §1
# Gal(a1-4)GlcNAc = biological target: Gal(a1-4)GlcNAc
# Summary of the method: as §1
# Gal(a1-6)Glc = biological target: Gal(a1-6)Glc
# Summary of the method: as §1
# Gal(b1-2)Gal = biological target: Gal(b1-2)Gal
# Summary of the method: as §1
# Gal(b1-3)Gal = biological target: Gal(b1-3)Gal
# Summary of the method: as §1
# Gal(b1-3)Gal(b1-4)GlcNAc = biological target: Gal(b1-3)Gal(b1-4)GlcNAc
# Summary of the method: as §1
# Gal(b1-3)GalNAc = biological target: Gal(b1-3)GalNAc
# Summary of the method: as §1
# [5] = biological target: Gal(b1-3)GalNAc(a1-3)[Fuc(a1-2)]Gal(b1-4)Glc
# Summary of the method: as §1
# [6] = biological target: Gal(b1-3)GalNAc(a1-3)[Fuc(a1-2)]Gal(b1-4)GlcNAc
# Summary of the method: as §1
# Gal(b1-3)GalNAc(b1-3)Gal = biological target: Gal(b1-3)GalNAc(b1-3)Gal
# Summary of the method: as §1
# [7] = biological target: Gal(b1-3)GalNAc(b1-3)Gal(a1-4)Gal(b1-4)Glc
# Summary of the method: as §1
# [8] = biological target: Gal(b1-3)GalNAc(b1-4)Gal(b1-4)Glc
# Summary of the method: as §1
# [9] = biological target: Gal(b1-3)GalNAc(b1-4)[Neu5Ac(a2-3)]Gal(b1-4)Glc
# Summary of the method: as §1
# Gal(b1-3)GlcNAc = biological target: Gal(b1-3)GlcNAc
# Summary of the method: as §1
# [10] = biological target: Gal(b1-3)GlcNAc(a1-3)Gal(b1-4)GlcNAc
# Summary of the method: as §1
# [11] = biological target: Gal(b1-3)GlcNAc(a1-6)Gal(b1-4)GlcNAc
# Summary of the method: as §1
# Gal(b1-3)GlcNAc(b1-2)Man = biological target: Gal(b1-3)GlcNAc(b1-2)Man
# Summary of the method: as §1
# [12] = biological target: Gal(b1-3)GlcNAc(b1-2)Man(a1-3)[Gal(b1-3)GlcNAc(b1-2)Man(a1-6)]Man(b1-4)GlcNAc(b1-4)GlcNAc
# Summary of the method: as §1
# [13] = biological target: Gal(b1-3)GlcNAc(b1-2)Man(a1-3)[Gal(b1-3)GlcNAc(b1-2)Man(a1-6)]Man(b1-4)GlcNAc(b1-4)[Fuc(a1-6)]GlcNAc
# Summary of the method: as §1
# [14] = biological target: Gal(b1-3)GlcNAc(b1-2)Man(a1-3)[GlcNAc(b1-4)][Gal(b1-3)GlcNAc(b1-2)Man(a1-6)]Man(b1-4)GlcNAc(b1-4)GlcNAc
# Summary of the method: as §1
# [15] = biological target: Gal(b1-3)GlcNAc(b1-2)[Gal(b1-3)GlcNAc(b1-6)]Man(a1-6)[Gal(b1-3)GlcNAc(b1-2)Man(a1-3)]Man(b1-4)GlcNAc(b1-4)GlcNAc
# Summary of the method: as §1
# [16] = biological target: Gal(b1-3)GlcNAc(b1-3)Gal(b1-3)GlcNAc
# Summary of the method: as §1
# [17] = biological target: Gal(b1-3)GlcNAc(b1-3)Gal(b1-4)Glc
# Summary of the method: as §1
# [18] = biological target: Gal(b1-3)GlcNAc(b1-3)Gal(b1-4)GlcNAc
# Summary of the method: as §1
# [19] = biological target: Gal(b1-3)GlcNAc(b1-3)Gal(b1-4)GlcNAc(b1-2)Man(a1-3)[Gal(b1-3)GlcNAc(b1-3)Gal(b1-4)GlcNAc(b1-2)Man(a1-6)]Man(b1-4)GlcNAc(b1-4)GlcNAc
# Summary of the method: as §1
# [20] = biological target: Gal(b1-3)GlcNAc(b1-3)Gal(b1-4)GlcNAc(b1-2)[Gal(b1-3)GlcNAc(b1-3)Gal(b1-4)GlcNAc(b1-6)]Man(a1-6)[Gal(b1-3)GlcNAc(b1-3)Gal(b1-4)GlcNAc(b1-2)Man(a1-3)]Man(b1-4)GlcNAc(b1-4)[Fuc(a1-6)]GlcNAc
# Summary of the method: as §1
# [21] = biological target: Gal(b1-3)GlcNAc(b1-3)Gal(b1-4)GlcNAc(b1-3)Gal(b1-4)GlcNAc(b1-2)[Gal(b1-3)GlcNAc(b1-3)Gal(b1-4)GlcNAc(b1-3)Gal(b1-4)GlcNAc(b1-6)]Man(a1-6)[Gal(b1-3)GlcNAc(b1-3)Gal(b1-4)GlcNAc(b1-3)Gal(b1-4)GlcNAc(b1-2)Man(a1-3)]Man(b1-4)GlcNAc(b1-4)[Fuc(a1-6)]GlcNAc
# Summary of the method: as §1
# [22] = biological target: Gal(b1-3)GlcNAc(b1-3)Gal(b1-4)GlcNAc(b1-6)[Gal(b1-3)GlcNAc(b1-3)]Gal(b1-4)Glc
# Summary of the method: as §1
# [23] = biological target: Gal(b1-3)GlcNAc(b1-3)Gal(b1-4)[Fuc(a1-3)]GlcNAc
# Summary of the method: as §1
# [24] = biological target: Gal(b1-3)GlcNAc(b1-3)Gal(b1-4)[Fuc(a1-3)]GlcNAc(b1-6)[Gal(b1-3)GlcNAc(b1-3)]Gal(b1-4)Glc
# Summary of the method: as §1
# [25] = biological target: Gal(b1-3)GlcNAc(b1-3)GalNAc
# Summary of the method: as §1
# [26] = biological target: Gal(b1-3)GlcNAc(b1-6)Gal(b1-4)GlcNAc
# Summary of the method: as §1
# [27] = biological target: Gal(b1-3)GlcNAc(b1-6)GalNAc
# Summary of the method: as §1
binder,measurement,setting,value
Clec18C (Homo sapiens) (protein) MLHPETSPGRGHLLAVLLALLGTAWAEVWPPQLQEQAPMAGALNRKESFLLLSLHNRLRSWVQPPAADMRRLDWSDSLAQLAQARAALCGTPTPSLASGLWRTLQVGWNMQLLPAGLVSFVEVVSLWFAEGQRYSHAAGECARNATCTHYTQLVWATSSQLGCGRHLCSAGQAAIEAFVCAYSPRGNWEVNGKTIVPYKKGAWCSLCTASVSGCFKAWDHAGGLCEVPRNPCRMSCQNHGRLNISTCHCHCPPGYTGRYCQVRCSLQCVHGRLREEECSCVCDIGYGGAQCATKVHFPFHTCDLRIDGDCFMVSSEADTYYRARMKCQRKGGVLAQIKSQKVQDILAFYLGRLETTNEVIDSDFETRNFWIGLTYKTAKDSFRWATGEHQAFTSFAFGQPDNHGFGNCVELQASAAFNWNNQRCKTRNRYICQFAQEHISRWGPGS,glycan array binding signal (z-score),[1],-0.42
same,glycan array binding signal (z-score),[2],-0.306
same,glycan array binding signal (z-score),Gal(a1-4)Gal(b1-4)Glc,0.762
same,glycan array binding signal (z-score),Gal(a1-4)Gal(b1-4)GlcNAc,1.24
same,glycan array binding signal (z-score),[3],0.282
same,glycan array binding signal (z-score),[4],-0.492
same,glycan array binding signal (z-score),Gal(a1-4)GlcNAc,-0.3
same,glycan array binding signal (z-score),Gal(a1-6)Glc,-0.605
same,glycan array binding signal (z-score),Gal(b1-2)Gal,2.01
same,glycan array binding signal (z-score),Gal(b1-3)Gal,-0.247
same,glycan array binding signal (z-score),Gal(b1-3)Gal(b1-4)GlcNAc,1.45
same,glycan array binding signal (z-score),Gal(b1-3)GalNAc,-0.46
same,glycan array binding signal (z-score),[5],-0.454
same,glycan array binding signal (z-score),[6],-0.231
same,glycan array binding signal (z-score),Gal(b1-3)GalNAc(b1-3)Gal,-0.58
same,glycan array binding signal (z-score),[7],0.537
same,glycan array binding signal (z-score),[8],-0.216
same,glycan array binding signal (z-score),[9],0.031
same,glycan array binding signal (z-score),Gal(b1-3)GlcNAc,-0.159
same,glycan array binding signal (z-score),[10],-0.264
same,glycan array binding signal (z-score),[11],0.983
same,glycan array binding signal (z-score),Gal(b1-3)GlcNAc(b1-2)Man,-0.181
same,glycan array binding signal (z-score),[12],1.5
same,glycan array binding signal (z-score),[13],0.158
same,glycan array binding signal (z-score),[14],-0.03
same,glycan array binding signal (z-score),[15],-0.547
same,glycan array binding signal (z-score),[16],-0.443
same,glycan array binding signal (z-score),[17],-0.457
same,glycan array binding signal (z-score),[18],-0.118
same,glycan array binding signal (z-score),[19],-0.036
same,glycan array binding signal (z-score),[20],-0.346
same,glycan array binding signal (z-score),[21],2.71
same,glycan array binding signal (z-score),[22],0.044
same,glycan array binding signal (z-score),[23],-0.23
same,glycan array binding signal (z-score),[24],-0.432
same,glycan array binding signal (z-score),[25],-0.404
same,glycan array binding signal (z-score),[26],-0.291
same,glycan array binding signal (z-score),[27],1.6
